Measurements taken from PubChem BioAssay AID1468 (National Center for Advancing Translational Sciences (NCATS), 2008).
Screen size: about 280,000 compounds; about 1,100 (0.39%) were called active. The shares of active, inactive and inconclusive entries below differ from those in the screen. Calls come from the whole dose curve; as a rule, active = well fitted inhibition curve with a large enough effect; inconclusive = small, poorly fitted or top-dose-only effect, or effect the other way; inactive = flat fitted curve, though single readings scatter. Potencies of inconclusive entries are left out as doubtful fits.

Each compound was assayed against Microtubule-associated protein tau (Homo sapiens) (UniProt P10636) (assay: qHTS for Inhibitors of Tau Fibril Formation, Fluorescence Polarization). Conditions: K18 P301L tau heparin fibrillization, Alexa594 FP, 6 h; series mostly up to 57.7 µM; activity, negative = inhibition: at the top concentration.
Outline: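 Heparin (20 uM) drove fibril formation of recombinant tau K18 P301L, 15 uM unlabeled with 0.24 uM Alexa 594 label, for 6 hr at 37 C in 100 mM sodium acetate pH 7. Fluorescence polarization (555/632 nm) read 1 hr after 30 uM ThT.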
% is set by controls: 0 for no effect and ±100 for the full control effect; potency is the fitted concentration of half-maximal effect; tags give direction and shape of the fitted curve.
Note: nearly all actives have a fitted effect of over 55% in size.

Sequence of UniProt P10636 (P10636 whole entry, looked up): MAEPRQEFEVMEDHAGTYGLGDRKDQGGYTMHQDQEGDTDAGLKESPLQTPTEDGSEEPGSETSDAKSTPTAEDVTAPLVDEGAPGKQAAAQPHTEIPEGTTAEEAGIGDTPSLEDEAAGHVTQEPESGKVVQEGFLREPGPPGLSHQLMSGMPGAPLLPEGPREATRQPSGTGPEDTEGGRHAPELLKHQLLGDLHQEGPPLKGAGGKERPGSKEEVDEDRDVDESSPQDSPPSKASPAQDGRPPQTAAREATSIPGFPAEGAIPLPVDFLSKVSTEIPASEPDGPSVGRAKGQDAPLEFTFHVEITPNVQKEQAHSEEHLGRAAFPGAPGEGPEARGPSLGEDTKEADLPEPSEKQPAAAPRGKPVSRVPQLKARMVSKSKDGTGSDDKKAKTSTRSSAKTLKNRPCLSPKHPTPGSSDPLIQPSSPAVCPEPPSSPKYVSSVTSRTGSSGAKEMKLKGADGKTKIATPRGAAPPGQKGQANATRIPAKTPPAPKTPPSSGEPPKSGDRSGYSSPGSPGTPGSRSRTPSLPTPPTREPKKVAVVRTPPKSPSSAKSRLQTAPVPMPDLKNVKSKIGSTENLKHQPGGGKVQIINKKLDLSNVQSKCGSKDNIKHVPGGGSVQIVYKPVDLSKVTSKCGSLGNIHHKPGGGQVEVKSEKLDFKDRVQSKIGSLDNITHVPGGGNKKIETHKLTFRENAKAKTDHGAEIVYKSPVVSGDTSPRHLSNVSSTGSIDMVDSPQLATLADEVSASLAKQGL

Row | SMILES | Potency | activity, negative = inhibition
1 | CC(C)C[C@H](NC(=O)c1[nH]cnc1C(=O)N[C@@H](Cc1ccccc1)C(=O)OC(C)(C)C)C(=O)OC(C)(C)C | inconclusive [inhibitor, partial curve, poor fit] | 
2 | CN(C)C(=O)c1ccc2c(c1)N(CC(=O)NCc1ccccc1Cl)C(=O)C1CCCCN21 (stereo not drawn) |  | inactive: -4.14%
3 | COc1ccc(OC)c(CNC(=O)c2nn(C)c3c2CS(=O)(=O)c2ccccc2-3)c1 | inconclusive [inhibitor, full curve, poor fit] | 
4 | CCCC(=O)Nc1nc(C)c(-c2csc(Nc3cc(OC)ccc3OC)n2)s1 | inconclusive [activator, partial curve, poor fit] | 
5 | COc1ccc(NC(=O)c2oc3ccccc3c2NC(=O)Cc2coc3ccc(C)cc23)cc1 | inconclusive [inhibitor, partial curve] | 
6 | O=C(c1cnc2c(c1)COc1ccc(Cl)cc1-2)c1ccccc1O | inconclusive [inhibitor, full curve, poor fit] | 
7 | COc1ccc(N2CCN(C(=O)CN3C(=O)COc4ccc(S(=O)(=O)N5CCC(C)CC5)cc43)CC2)cc1 |  | inactive: 6.28%
8 | COc1ccc(NC(=O)c2cccc(Cn3cc(Br)c([N+](=O)[O-])n3)c2)c(C)c1 | inconclusive [inhibitor, single point] | 
9 | OC1CCCN(Cc2ccc3c(c2)Cc2ccccc2-3)C1 (stereo not drawn) |  | inactive: 0.98%
10 | O=C(Cn1c(=O)n(-c2ccccc2)c(=O)c2ccc(C(=O)NCc3ccc4c(c3)OCO4)cc21)Nc1ccc(Br)cc1 | inconclusive [inhibitor, partial curve] | 
11 | CCOc1ccc2[nH]c(=O)c(CN(Cc3ccco3)Cc3nnnn3Cc3ccccc3)cc2c1 |  | inactive: -6.59%
12 | O=C(Nc1ccc(C(=O)N2CCCC2)cc1)Nc1ccc(Cl)cc1Cl | inconclusive [inhibitor, full curve, poor fit] | 
13 | COc1ccc(OC)c(-n2c(CN3CCC(C(N)=O)CC3)nc3ccccc3c2=O)c1 |  | inactive: -0.898%
14 | CCN(CC)c1nc(C#N)cc(-c2ccc(OC)cc2)n1 | inconclusive [inhibitor, single point] | 
15 | CCOC(=O)CN1C(c2ccc(O)cc2)Nc2ccc(Br)cc2C1c1ccccc1 (stereo not drawn) | inconclusive [inhibitor, single point] | 
16 | COc1cc(NC(=O)C(=O)NNC(=O)C2CCCCC2)c(OC)cc1Cl |  | inactive: 5.45%
17 | CSc1nc2c(sc3ccccc32)c(=O)n1Cc1ccc(C)cc1 |  | inactive: -13.5%
18 | COc1cc(NC(=O)c2ccc(N)nc2)cc(C(=O)Nc2cccc(C(F)(F)F)c2)c1 | inconclusive [inhibitor, partial curve] | 
